Measured values: the supplement of paper PMC3334620
Whole data set: some 33,000 sequences, median “E-score (-0.5 to 0.5)” near -0.036, cut for the highest 2% near 0.37. The list shows a part of the results.

Molecular target: T1, Yer064c (UniProt P40041)
T1 sequence: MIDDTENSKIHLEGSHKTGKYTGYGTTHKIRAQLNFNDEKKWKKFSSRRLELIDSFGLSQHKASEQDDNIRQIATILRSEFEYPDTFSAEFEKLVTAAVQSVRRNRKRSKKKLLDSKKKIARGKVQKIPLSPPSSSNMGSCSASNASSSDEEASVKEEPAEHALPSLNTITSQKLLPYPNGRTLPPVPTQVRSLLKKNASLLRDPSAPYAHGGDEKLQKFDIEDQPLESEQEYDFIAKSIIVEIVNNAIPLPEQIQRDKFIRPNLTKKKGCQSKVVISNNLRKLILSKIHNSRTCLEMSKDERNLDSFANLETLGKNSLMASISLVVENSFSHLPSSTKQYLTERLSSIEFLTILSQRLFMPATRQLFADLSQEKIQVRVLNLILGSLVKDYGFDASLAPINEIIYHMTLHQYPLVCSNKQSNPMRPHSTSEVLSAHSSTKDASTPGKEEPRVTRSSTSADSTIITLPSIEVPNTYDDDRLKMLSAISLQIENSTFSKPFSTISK
Assay: PBM E-score (8-mer binding enrichment) (E-score (-0.5 to 0.5)); higher = stronger / more preferred TF binding; most listed sequences are background and not binding sites
Details: protein concentration: 200 nM; construct: GST-full length
In short: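 Yeast transcription factors, full-length or as DNA-binding domains, were expressed with a GST tag using PURExpress in vitro transcription/translation. At about 100-200 nM they were applied to universal all-10-mer Agilent arrays, double-stranded by primer extension on fresh or once-stripped slides. Fluorescent anti-GST detected bound protein, and masliner normalised the scans. E-scores for ungapped eight-base words, pooled with reverse complements, came from the Universal PBM Analysis Suite.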

Sequence	PBM E-score
ATGATTCA	0.49
ATGACCTA	0.225
CGCGCCCC	-0.271
ACTAATCT	0.273
ACACGATC	-0.0228
AGGCTGGA	-0.00933
CATCCGCC	-0.131
CTTTATAC	-0.0681
CAGACTCC	0.187
ACAAGTAA	-0.0252
CGCCAGAC	-0.0536
GAATACCC	-0.112
CTGCGCTA	-0.0642
GCCGGAGA	-0.0453
CCATGACG	0.0206
GCCTCCAA	-0.205
AGACGAGC	-0.186
GCTTTTAA	-0.0605
TGAAATAA	-0.00913
CTAAAATC	0.0443
TACGAGAA	-0.0441
CCGCATCG	-0.0628
TCGCGAAA	-0.0959
GTGGTACA	-0.0879
AACAGGAG	-0.0797

Sequence	PBM E-score
CGCGTGAC	0.233
AGATTTCC	-0.0852
ACGTTCTA	-0.0941
AAGGCAAA	-0.139
CGACATCC	-0.29
ACCGCTTG	-0.0956
CAACGGGA	-0.116
AGTAGAAT	-0.0585
GCCGACTA	0.334
CTGGTCTA	-0.15
CACTGGCC	-0.0935
AGAAGATA	0.171
CGTTTATA	-0.00381
CCATTAAA	-0.118
CTCCGCAA	-0.0345
CTTCCGGC	-0.221
CCTCGAGG	-0.0203
CGATACTA	-0.158
TGATGGCA	-0.364
CACTATCG	-0.137
AGCTTCGG	-0.022
ATGATTGC	0.375
AGGGGTGC	-0.273
CATCTGAG	0.0912
ACGCAGCA	-0.206

Sequence	PBM E-score
GATAAGCA	-0.286
AGGCACAC	-0.235
ACGTGACC	-0.137
GTGAGAGA	-0.0044
CACCCATA	0.0115
GATGGACA	0.0247
CAAAGACC	-0.0823
GAATCGGC	-0.0226
CCAGGTTA	-0.00118
GTTCAAAA	-0.0391
ACCGGCTC	-0.221
ACACCTCA	-0.12
CTATGATC	0.155
ACCCTGAG	0.0733
ATAACTAG	-0.0149
GACGCACA	0.0677
TCCGAAAA	-0.0172
ACTCTCGG	0.151
GGATATGA	0.135
CGGAAGAG	-0.262
ACCTACGG	-0.193
ACAAACTC	0.0756
AAAAATAC	0.14
CTCTCGAA	0.074
GTGAACTA	0.0767

Sequence	PBM E-score
GAAGGAAC	-0.157
TGCCGCCA	-0.171
AAGTCGGA	0.18
AATCAGAT	0.329
AGCTCGAG	-0.183
CGTATACG	-0.0729
AACTAGAC	0.107
GTCATATA	0.309
GAGCGCAC	-0.187
GAATTTCC	-0.2
ATCAGGCC	0.0716
CAGAGGCG	-0.128
TAGTTACA	0.0285
CAGTCTTC	0.294
AAGTGAAT	0.145
CTCGCCAG	-0.218
CACCCGGC	-0.174
GTCCGGAC	-0.0563
AGAATGAC	0.246
ACCAATCG	-0.136
GTTCCAAC	0.0414
ACTCGCTG	0.128
ACCTCAGG	0.0242
CACTCGAA	0.212
GGCTATCA	-0.11

Sequence	PBM E-score
AGGGAGGG	-0.254
CTCTACCA	-0.14
AGTAGTGA	0.17
AGAGGGAT	-0.27
GCGGACAA	0.0889
AAGAGTTG	0.0206
AGTATGCA	0.108
CCAATAAA	0.0533
GACCTGTA	-0.193
AGTCCGGA	0.079
AGTAGCGA	0.123
GGAAGCTA	-0.204
CTGGTTGA	0.116
CAGTATGA	0.265
ACGGCATG	-0.147
CACCACGA	0.0612
AGACACAG	0.136
CGGTATGC	-0.224
AAAATAAT	0.197
CTCGATAA	0.22
AAAAGAAC	-0.144
AGACACAT	0.131
CCCCGTCG	-0.211
ACATTTGG	-0.208
GCACAGAC	0.0471

Sequence	PBM E-score
CGAAGGTA	-0.142
GTAGCTGA	0.0597
ATAAAGGA	-0.105
ATGGGTGG	-0.00495
ACGCAGAC	0.218
ACCGTTCA	-0.179
ATGTGACG	-0.156
GTGCAAGA	-0.00957
ATTATTCC	-0.0627
ACTCACAT	0.35
GCCCGCCC	-0.312
CACAGTAA	0.131
GTTAACCA	0.279
GAAAGTGC	-0.183
GCTGAGCA	0.064
CTTTAAGA	0.125
GAGCGACA	0.00075
TCGAGTAA	0.11
AGCTGTTG	0.0703
ATGAGAAG	-0.0202
AGGCGCCT	-0.0389
ACGCGAGC	-0.0659
GAGGTCCA	-0.213
CAAACTGG	-0.152
AACGAATA	-0.203

Sequence	PBM E-score
CACCCTCG	-0.0423
GCAGTAGC	-0.281
ACGGGGAT	-0.0995
CTTGGGTC	0.0527
TTGGAAAA	-0.178
AGGCAATA	0.0155
CGAGGCCG	-0.232
AAGTCTGA	0.173
CTAGGGAC	-0.145
GTGTCTCA	0.323
CACAGAAC	0.00675
CAGCCATA	-0.0611
AGTACGAC	0.202
CTTGTCAA	0.104
AATAATAT	0.0658
AGCCATTC	0.0873
AGGAGAAG	-0.128
GACATCTA	0.0716
CCACATGG	0.0871
CACGTGTA	-0.0349
ATCCCCAT	-0.112
CCGTACGC	-0.238
